Measurements: a collection of fitness landscapes (doi:10.1126/science.1257360)
Some of the results follow.

B1: PhoQ; a variant is named by its letters at X, in order, P23837 (parent)
chain: MKKLLRLFFPLSLRVRFLLATAAVVLVLSLAYGMVALIGYSVSFDKTTFRLLRGESNLFYTLAKWENNKLHVELPENIDKQSPTMTLIYDENGQLLWAQRDVPWLMKMIQPDWLKSNGFHEIEADVNDTSLLLSGDHSIQQQLQEVREDDDDAEMTHSVAVNVYPATSRMPKLTIVVVDTIPVELKSSYMVWSWFIYVLSANLLLVIPLLWVAAWWSLRPIEALAKEVRELEEHNRELLNPATTRELTSLVRNLNRLLKSERERYDKYRTTLTDLTHSLKTPLXXLQXXLRSLRSEKMSVSDAEPVMLEQISRISQQIGYYLHRASMRGGTLLSRELHPVAPLLDNLTSALNKVYQRKGVNISLDISPEISFVGEQNDFVEVMGNVLDNACKYCLEFVEISARQTDEHLYIVVEDDGPGIPLSKREVIFDRGQRVDTLRPGQGVGLAVAREITEQYEGKIVAGESMLGGARMEVIFGRQHSAPKDE

Variants of: B1
Assay: enrichment ratio after two sorts for PhoP signalling (ratio (wild type AVST 3.29)); higher = more functional
Settings: with PhoP (E. coli)
In the case of NFHL, the enrichment ratio is reported as ≤ 0.25. In the case of RAAQ, the enrichment ratio is reported as ≤ 0.25. In the case of SMAY, the enrichment ratio is reported as 25.3. RSAW was tested, and the enrichment ratio was ≤ 0.25. For TICV, the enrichment ratio was 6.14. WDFY was tested, and the enrichment ratio was ≤ 0.25. For LASS, the enrichment ratio was ≤ 0.25. For MFER, the enrichment ratio was ≤ 0.25. With DHVY the enrichment ratio was ≤ 0.25. For SHCK, the enrichment ratio was ≤ 0.25. With RECR the enrichment ratio was ≤ 0.25. For KVRP, the enrichment ratio was ≤ 0.25. For HICF, the enrichment ratio was ≤ 0.25. In the case of NRFF, the enrichment ratio is reported as ≤ 0.25. With NQPM the enrichment ratio was ≤ 0.25. For NLNN, the enrichment ratio was ≤ 0.25. TTHY gave an enrichment ratio of 3.33. In the case of MKNH, the enrichment ratio is reported as ≤ 0.25. In the case of QVCI, the enrichment ratio is reported as ≤ 0.25. With VLRF the enrichment ratio was ≤ 0.25. KEAD was tested, and the enrichment ratio was ≤ 0.25. In the case of ANPK, the enrichment ratio is reported as ≤ 0.25. YCHQ was tested, and the enrichment ratio was ≤ 0.25. DHWP was tested, and the enrichment ratio was ≤ 0.25. WYSI was tested, and the enrichment ratio was ≤ 0.25. In the case of HNRL, the enrichment ratio is reported as ≤ 0.25. In the case of YWSN, the enrichment ratio is reported as ≤ 0.25. For WHRM, the enrichment ratio was ≤ 0.25. TVME gave an enrichment ratio of 11.7. With VPPP the enrichment ratio was ≤ 0.25. In the case of EQGV, the enrichment ratio is reported as ≤ 0.25. In the case of ASET, the enrichment ratio is reported as ≤ 0.25. With HAVK the enrichment ratio was ≤ 0.25. In the case of VDAL, the enrichment ratio is reported as ≤ 0.25. IMVA was tested, and the enrichment ratio was ≤ 0.25. VRRI was tested, and the enrichment ratio was ≤ 0.25. In the case of WRSR, the enrichment ratio is reported as ≤ 0.25. In the case of WSGY, the enrichment ratio is reported as ≤ 0.25. In the case of MDRE, the enrichment ratio is reported as ≤ 0.25. LCMN was tested, and the enrichment ratio was ≤ 0.25. For DCKV, the enrichment ratio was ≤ 0.25. RAFS was tested, and the enrichment ratio was ≤ 0.25. For SRKL, the enrichment ratio was ≤ 0.25. In the case of QFVN, the enrichment ratio is reported as ≤ 0.25. In the case of PVPE, the enrichment ratio is reported as ≤ 0.25. For NWTW, the enrichment ratio was ≤ 0.25. In the case of MIVF, the enrichment ratio is reported as ≤ 0.25. LCRR was tested, and the enrichment ratio was ≤ 0.25. For KYII, the enrichment ratio was ≤ 0.25. SKER was tested, and the enrichment ratio was ≤ 0.25. For RPVT, the enrichment ratio was ≤ 0.25. For GFRP, the enrichment ratio was ≤ 0.25. PTFC was tested, and the enrichment ratio was ≤ 0.25. For VGAM, the enrichment ratio was 6.38. With WTLQ the enrichment ratio was ≤ 0.25. LRLY was tested, and the enrichment ratio was ≤ 0.25. In the case of VSDW, the enrichment ratio is reported as ≤ 0.25. With QYYA the enrichment ratio was ≤ 0.25. For VHYE, the enrichment ratio was ≤ 0.25. NFFM was tested, and the enrichment ratio was ≤ 0.25. SGLQ was tested, and the enrichment ratio was 16.6. With PRPH the enrichment ratio was ≤ 0.25. For WRVY, the enrichment ratio was ≤ 0.25. YKIY was tested, and the enrichment ratio was ≤ 0.25. VNQL gave an enrichment ratio of 1. HPML was tested, and the enrichment ratio was ≤ 0.25. With YIVY the enrichment ratio was ≤ 0.25. In the case of HKFY, the enrichment ratio is reported as ≤ 0.25. For VTLM, the enrichment ratio was 10.8. KVKM was tested, and the enrichment ratio was ≤ 0.25. In the case of RVQF, the enrichment ratio is reported as ≤ 0.25. For PQDT, the enrichment ratio was ≤ 0.25. In the case of SFQL, the enrichment ratio is reported as ≤ 0.25. In the case of GYSH, the enrichment ratio is reported as ≤ 0.25. With HILM the enrichment ratio was ≤ 0.25. In the case of LCAW, the enrichment ratio is reported as ≤ 0.25. In the case of LKGR, the enrichment ratio is reported as 0.425. For GDTT, the enrichment ratio was ≤ 0.25. In the case of YRTL, the enrichment ratio is reported as ≤ 0.25. With NYDT the enrichment ratio was ≤ 0.25. With MRPM the enrichment ratio was ≤ 0.25. In the case of GQMF, the enrichment ratio is reported as ≤ 0.25. For APAF, the enrichment ratio was ≤ 0.25. With QYAP the enrichment ratio was ≤ 0.25. With EEKV the enrichment ratio was ≤ 0.25. With TVNN the enrichment ratio was 12.7. NRSD was tested, and the enrichment ratio was ≤ 0.25. In the case of SQHC, the enrichment ratio is reported as ≤ 0.25. In the case of SKPH, the enrichment ratio is reported as ≤ 0.25. With ASLI the enrichment ratio was 12.7. In the case of DIYG, the enrichment ratio is reported as ≤ 0.25. For NNGD, the enrichment ratio was ≤ 0.25. HSHD was tested, and the enrichment ratio was ≤ 0.25. RLAA was tested, and the enrichment ratio was ≤ 0.25. With GFCF the enrichment ratio was ≤ 0.25. In the case of NAFC, the enrichment ratio is reported as ≤ 0.25. With FCMW the enrichment ratio was ≤ 0.25. With GNNF the enrichment ratio was ≤ 0.25. RPQW was tested, and the enrichment ratio was ≤ 0.25. VRYV was tested, and the enrichment ratio was ≤ 0.25. In the case of QLRW, the enrichment ratio is reported as ≤ 0.25. For TWLS, the enrichment ratio was ≤ 0.25. KFEA was tested, and the enrichment ratio was ≤ 0.25. TRIP was tested, and the enrichment ratio was ≤ 0.25. MSVS was tested, and the enrichment ratio was ≤ 0.25. In the case of RVLT, the enrichment ratio is reported as ≤ 0.25. For MKTE, the enrichment ratio was ≤ 0.25. FGNN was tested, and the enrichment ratio was ≤ 0.25. KCME was tested, and the enrichment ratio was ≤ 0.25. For NMGS, the enrichment ratio was ≤ 0.25. In the case of DQYQ, the enrichment ratio is reported as ≤ 0.25. YRLK was tested, and the enrichment ratio was ≤ 0.25. WIPD was tested, and the enrichment ratio was ≤ 0.25. For NDHC, the enrichment ratio was ≤ 0.25. SAFW was tested, and the enrichment ratio was ≤ 0.25. For VFND, the enrichment ratio was ≤ 0.25. PVWT was tested, and the enrichment ratio was ≤ 0.25. For ATYF, the enrichment ratio was ≤ 0.25. With ACRQ the enrichment ratio was ≤ 0.25. With FHLL the enrichment ratio was ≤ 0.25. In the case of RLPR, the enrichment ratio is reported as ≤ 0.25. In the case of ELMY, the enrichment ratio is reported as ≤ 0.25. For SWVP, the enrichment ratio was ≤ 0.25. In the case of TRPT, the enrichment ratio is reported as ≤ 0.25. With EQCM the enrichment ratio was ≤ 0.25. AWWS was tested, and the enrichment ratio was ≤ 0.25. In the case of RTDF, the enrichment ratio is reported as ≤ 0.25. In the case of VDMF, the enrichment ratio is reported as ≤ 0.25. In the case of WEIS, the enrichment ratio is reported as ≤ 0.25. GNVV was tested, and the enrichment ratio was 5.22. Work on SYAI yielded an enrichment ratio of 0.31. In the case of FWPE, the enrichment ratio is reported as ≤ 0.25. NVEF was tested, and the enrichment ratio was ≤ 0.25. NRMD was tested, and the enrichment ratio was ≤ 0.25. In the case of FPWH, the enrichment ratio is reported as ≤ 0.25. For FVNS, the enrichment ratio was ≤ 0.25. In the case of LLFG, the enrichment ratio is reported as ≤ 0.25. WQKK was tested, and the enrichment ratio was ≤ 0.25. With EEMS the enrichment ratio was ≤ 0.25. LEWM showed an enrichment ratio of 5.44. With IVLF the enrichment ratio was ≤ 0.25. In the case of HPHP, the enrichment ratio is reported as ≤ 0.25. In the case of RMYD, the enrichment ratio is reported as ≤ 0.25. NAFR was tested, and the enrichment ratio was ≤ 0.25. FEQR was tested, and the enrichment ratio was ≤ 0.25. With PSNV the enrichment ratio was ≤ 0.25. With VRNS the enrichment ratio was ≤ 0.25. In the case of SGED, the enrichment ratio is reported as ≤ 0.25. YIVL was tested, and the enrichment ratio was ≤ 0.25. For NNPL, the enrichment ratio was ≤ 0.25. For IRES, the enrichment ratio was ≤ 0.25. For CFCR, the enrichment ratio was ≤ 0.25. With VLIV the enrichment ratio was ≤ 0.25.
